In article PMC3517938:
Results are given in words; binding and its absence hold for the method and conditions named. For some assays here: In cells and extracts the contact can be indirect. Some results given as binding are weak or reduced against the parent protein; the word gives no strength.

Protein sequences, listed by entry. Tags and fused reporters are not part of them. Chains listed by the source or under a name are the forms on record and can include a tag or linker. Residues count along the entry.
UniProt Q96FI4: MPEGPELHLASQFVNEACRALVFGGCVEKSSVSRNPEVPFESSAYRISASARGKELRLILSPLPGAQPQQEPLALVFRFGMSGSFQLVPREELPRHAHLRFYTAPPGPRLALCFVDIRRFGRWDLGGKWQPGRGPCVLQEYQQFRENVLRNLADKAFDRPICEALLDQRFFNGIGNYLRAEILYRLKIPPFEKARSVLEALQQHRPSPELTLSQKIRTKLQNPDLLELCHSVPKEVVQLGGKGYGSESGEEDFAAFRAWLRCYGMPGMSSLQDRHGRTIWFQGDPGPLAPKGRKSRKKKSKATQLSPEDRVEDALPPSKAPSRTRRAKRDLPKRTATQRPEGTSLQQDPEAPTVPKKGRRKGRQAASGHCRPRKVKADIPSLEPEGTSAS
UniProt O15527: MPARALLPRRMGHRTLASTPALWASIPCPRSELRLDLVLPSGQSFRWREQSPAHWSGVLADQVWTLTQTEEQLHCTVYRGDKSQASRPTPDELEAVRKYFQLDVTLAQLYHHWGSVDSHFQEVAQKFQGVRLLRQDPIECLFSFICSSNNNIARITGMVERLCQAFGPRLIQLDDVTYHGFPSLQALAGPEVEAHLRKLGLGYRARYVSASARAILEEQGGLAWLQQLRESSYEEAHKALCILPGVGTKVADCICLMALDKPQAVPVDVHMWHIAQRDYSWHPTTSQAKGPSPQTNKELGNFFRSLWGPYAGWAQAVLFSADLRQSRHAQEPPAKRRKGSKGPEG
PARP-1 DNA binding domain (1–373 aa), His-tagged (P09874, residues 1-373): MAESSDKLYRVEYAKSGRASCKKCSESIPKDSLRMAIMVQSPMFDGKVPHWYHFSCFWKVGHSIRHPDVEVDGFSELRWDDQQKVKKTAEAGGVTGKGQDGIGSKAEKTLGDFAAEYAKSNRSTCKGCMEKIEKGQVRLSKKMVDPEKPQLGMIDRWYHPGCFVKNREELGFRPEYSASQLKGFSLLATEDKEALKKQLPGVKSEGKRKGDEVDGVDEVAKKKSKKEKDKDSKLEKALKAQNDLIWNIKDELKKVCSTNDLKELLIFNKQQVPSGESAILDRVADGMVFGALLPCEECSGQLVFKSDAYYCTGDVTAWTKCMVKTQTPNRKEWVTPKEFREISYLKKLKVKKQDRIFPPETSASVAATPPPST
PARP-1 catalytic domain (656–1014 aa), His-tagged (P09874, residues 656-1014): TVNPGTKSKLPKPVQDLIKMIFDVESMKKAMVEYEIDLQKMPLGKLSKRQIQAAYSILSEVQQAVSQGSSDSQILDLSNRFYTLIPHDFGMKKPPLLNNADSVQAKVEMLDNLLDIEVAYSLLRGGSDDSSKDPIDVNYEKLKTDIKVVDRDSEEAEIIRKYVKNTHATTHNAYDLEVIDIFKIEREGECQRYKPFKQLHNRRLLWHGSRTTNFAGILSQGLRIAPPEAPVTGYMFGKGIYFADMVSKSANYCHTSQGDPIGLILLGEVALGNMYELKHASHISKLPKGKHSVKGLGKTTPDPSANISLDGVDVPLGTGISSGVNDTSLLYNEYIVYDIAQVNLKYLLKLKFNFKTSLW
UniProt P11103: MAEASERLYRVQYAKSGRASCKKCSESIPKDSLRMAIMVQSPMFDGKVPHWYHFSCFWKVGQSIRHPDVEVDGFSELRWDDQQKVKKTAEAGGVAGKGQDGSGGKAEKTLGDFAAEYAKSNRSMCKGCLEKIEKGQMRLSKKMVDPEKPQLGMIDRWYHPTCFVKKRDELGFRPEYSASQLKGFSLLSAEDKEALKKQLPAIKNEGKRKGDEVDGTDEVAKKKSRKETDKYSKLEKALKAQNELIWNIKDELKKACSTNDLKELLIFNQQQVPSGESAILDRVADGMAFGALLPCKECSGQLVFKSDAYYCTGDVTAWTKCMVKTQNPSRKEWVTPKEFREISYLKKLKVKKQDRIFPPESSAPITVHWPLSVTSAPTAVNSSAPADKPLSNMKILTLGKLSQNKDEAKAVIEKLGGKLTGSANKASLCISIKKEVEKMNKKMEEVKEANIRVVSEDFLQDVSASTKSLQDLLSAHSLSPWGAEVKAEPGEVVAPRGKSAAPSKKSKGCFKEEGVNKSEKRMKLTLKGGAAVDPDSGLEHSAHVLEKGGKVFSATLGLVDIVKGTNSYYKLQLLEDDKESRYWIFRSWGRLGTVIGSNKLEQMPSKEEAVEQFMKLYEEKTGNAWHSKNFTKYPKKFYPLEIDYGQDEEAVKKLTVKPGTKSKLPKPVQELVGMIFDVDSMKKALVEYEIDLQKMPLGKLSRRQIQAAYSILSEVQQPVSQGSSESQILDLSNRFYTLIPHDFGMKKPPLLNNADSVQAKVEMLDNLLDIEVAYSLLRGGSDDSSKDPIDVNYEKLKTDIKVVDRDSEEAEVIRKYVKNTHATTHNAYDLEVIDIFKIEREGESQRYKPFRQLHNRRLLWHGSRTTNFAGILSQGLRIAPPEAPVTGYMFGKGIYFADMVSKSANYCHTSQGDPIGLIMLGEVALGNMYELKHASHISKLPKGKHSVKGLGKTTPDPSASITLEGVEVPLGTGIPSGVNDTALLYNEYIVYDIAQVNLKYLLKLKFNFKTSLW

Experiments:
[1] = target: GST-NEIL1 (GST tagged full-length NEIL1) (UniProt Q96FI4); assay: pull-down; 1 μg GST-NEIL1 incubated with 1 μg His-tagged PARP-1 DNA binding domain in the presence of 10 μg/ml ethidium bromide; immunoblot with anti-His; both purified
[2] = target: GST-NEIL1 (GST tagged full-length NEIL1) (UniProt Q96FI4); assay: pull-down; 1 μg GST-NEIL1 incubated with 1 μg His-tagged PARP-1 domain, without ethidium bromide; immunoblot with anti-His or anti-BRCT antibodies; both purified
GST-OGG1 (human) = GST-OGG1 (human) (UniProt O15527); assay: pull-down; 20 μg GST fusion protein incubated with 175 μg liver nuclear extract of young (7 month) or old (17 month) C57Bl/6 mice in IP buffer 1 hr at 4°C, washed 5X; immunoblot with anti-PARP-1; only the target purified
[3] = target: GST-NEIL1 (GST tagged full-length NEIL1) (UniProt Q96FI4); assay: as above

Row | Substance | binding [1] | binding [2] | binding (GST-OGG1 (human)) | binding [3]
1 | PARP-1 DNA binding domain (1–373 aa), His-tagged (from UniProt P09874 1-373) (domain or fragment) | no binding (condition: with 10 μg/ml ethidium bromide) | no binding (tested: 1 μg) | – | –
2 | PARP-1 catalytic domain (656–1014 aa), His-tagged (from UniProt P09874 656-1014) (domain or fragment) | – | no binding (tested: 1 μg) | – | –
3 | PARP-1, endogenous in mouse liver nuclear extracts (from UniProt P11103 1-1013) (enzyme) | – | – | binds | binds
